Measurements as given in article PMC4336329 (PLoS ONE, 2015).
The whole screen tested about 310,000 compounds, of which about 14,000 (4.5%) showed an effect of 50% or more. The effect is printed as a negative number. This is one part of the list.

target: human ether-à-go-go-related gene (hERG) potassium channel (human, UniProt Q12809); experiment: primary screen, population patch clamp on CHO cells stably expressing hERG
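Also: peak tail current of the secondary pulse compared with the same well before compound.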

human ether-à-go-go-related gene (hERG) potassium channel, sequence (Q12809 whole entry, looked up): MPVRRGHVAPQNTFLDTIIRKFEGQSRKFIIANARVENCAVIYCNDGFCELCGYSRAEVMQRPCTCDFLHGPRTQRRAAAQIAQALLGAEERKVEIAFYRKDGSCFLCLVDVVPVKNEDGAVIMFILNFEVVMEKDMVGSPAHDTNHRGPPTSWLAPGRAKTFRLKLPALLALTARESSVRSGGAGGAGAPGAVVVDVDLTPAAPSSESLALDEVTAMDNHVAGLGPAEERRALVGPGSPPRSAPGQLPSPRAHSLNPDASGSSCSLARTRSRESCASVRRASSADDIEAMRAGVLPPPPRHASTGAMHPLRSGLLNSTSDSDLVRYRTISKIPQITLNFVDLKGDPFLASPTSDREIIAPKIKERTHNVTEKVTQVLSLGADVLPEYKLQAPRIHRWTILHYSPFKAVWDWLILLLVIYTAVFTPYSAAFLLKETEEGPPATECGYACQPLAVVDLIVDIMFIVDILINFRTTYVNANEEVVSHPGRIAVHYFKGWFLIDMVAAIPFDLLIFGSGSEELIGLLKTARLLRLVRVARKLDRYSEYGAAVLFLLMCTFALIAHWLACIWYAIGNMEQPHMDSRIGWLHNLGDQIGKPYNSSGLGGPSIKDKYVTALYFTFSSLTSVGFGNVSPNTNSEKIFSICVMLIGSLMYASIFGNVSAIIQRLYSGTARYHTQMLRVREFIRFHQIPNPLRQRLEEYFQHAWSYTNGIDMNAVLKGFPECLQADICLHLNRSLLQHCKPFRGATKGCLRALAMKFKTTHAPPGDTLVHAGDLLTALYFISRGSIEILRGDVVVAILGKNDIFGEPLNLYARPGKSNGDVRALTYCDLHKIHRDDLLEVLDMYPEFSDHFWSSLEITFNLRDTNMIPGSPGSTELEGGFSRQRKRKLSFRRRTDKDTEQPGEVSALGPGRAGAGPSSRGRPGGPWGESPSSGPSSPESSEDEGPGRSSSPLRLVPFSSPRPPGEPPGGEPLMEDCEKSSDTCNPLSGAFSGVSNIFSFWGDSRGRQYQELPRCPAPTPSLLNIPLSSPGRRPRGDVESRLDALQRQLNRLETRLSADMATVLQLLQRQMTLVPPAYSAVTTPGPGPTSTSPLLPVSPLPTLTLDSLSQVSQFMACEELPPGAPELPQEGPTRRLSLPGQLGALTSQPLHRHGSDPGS

Row | Structure (SMILES) | hERG current change (%, negative = inhibition) at 10uM [%]
1 | c1ccc2cc(CNCc3cccc4ccccc34)ccc2c1 | 5.96
2 | CCOc1c([N+](=O)[O-])cc2c(C)c(C(=O)N3CCN(C)CC3)oc2c1OCC.Cl | -16.2
3 | CC(NC(=O)Nc1ccccc1)C(c1cccs1)N1CCN(C)CC1 (centres unmarked) | -17.8
4 | COc1ccccc1C(=O)NNC(=O)c1cccc(O)c1 | 22.4
5 | COc1ccc(/C=C(\C#N)C(=O)Nc2cccc(C)n2)cc1 | 14.1
6 | CS(=O)(=O)c1ccc(Cl)c(NC(=O)c2cccc(-n3cnnn3)c2)c1 | -65.6
7 | CCN1CCN(c2ncnc3c2cnn3-c2ccc(Cl)cc2)CC1 | -22.1
8 | COc1ccc(CCNC(=S)NCc2cccs2)cc1OC | 12.9
9 | O=C(C[n+]1cccc(/C=N/O)c1)N1CCCc2ccccc21.[Cl-] | 12.3
10 | COc1ccccc1/C=N/NC(=O)c1csc(C)c1C | -13.3
11 | CC(C)N(CC#CC(O)(c1ccccc1)c1ccccc1)C(C)C | -70.4
12 | Cc1cccc(NC(=S)N/N=C/C(C)c2ccccc2)c1C (centres unmarked) | 21.9
13 | CC(C)n1c(CN2CCN(C(=O)c3ccco3)CC2)nc2c1c(=O)n(C)c(=O)n2C | -7.57
14 | Cc1ccccc1NC(=S)C1=C(O)c2sccc2N(C)S1(=O)=O | 12.2
15 | CCOC(=O)C1CCCN(Cc2nc3ccc([N+](=O)[O-])cc3c(=O)n2-c2ccc(OC)cc2OC)C1 (centres unmarked) | -28.9
16 | COc1ccc(/C(C)=N/NC(=O)C(NC(=O)c2ccccc2)c2n[nH]c(=O)c3ccccc23)c(OC)c1 (centres unmarked) | 4.11
17 | CC(C)CNC(=O)C(=O)NC1CCCC1 | 11.7
18 | C/C(=N/NC(=O)CNC(=O)c1ccco1)c1ccc(Cl)cc1 | -1.47
19 | COC(=O)CNC(=O)C12CC3(C)CC(C)(CC(C)(C3)C1)C2 | 7.88

Row | Structure (SMILES) | hERG current change (%, negative = inhibition) at 10uM [%]
20 | Cc1ccc(C(=O)OCC(=O)Nc2ccc(C(N)=O)cc2)s1 | 10.1
21 | COc1ccc(/C=C/C(=O)NCC(=O)N/N=C/c2cc(Br)ccc2OCc2ccccc2)cc1 | -0.646
22 | Cc1ccccc1OCC(=O)N1CCCc2ccccc21 | -10.2
23 | COc1cc(C2C(=O)c3ccccc3C2=O)ccc1O | 18.4
24 | O=C(NCC1CCCO1)C1c2ccccc2C(=O)N1C1CCCCCCC1 (centres unmarked) | -0.14
25 | CCCCN(C(=O)CN1C(=O)C2CCCCC2C1=O)c1c(N)n(CCCC)c(=O)[nH]c1=O (centres unmarked) | -8.58
26 | NC(=O)CSc1nnc(-c2ccc(S(=O)(=O)N3CCCC3)cc2)o1 | 5.83
27 | CN[C@H]1C[C@H]2O[C@@](C)([C@H]1OC)n1c3ccccc3c3c4c(c5c6ccccc6n2c5c31)C(=O)NC4 | 0.476
28 | CCOc1cc(CN2CCCCC2)ccc1OC | -8.28
29 | CCN1CCN(S(=O)(=O)c2cnc(Cl)c(Br)c2)CC1 | 46
30 | CCN(CC)c1ccc(N=Cc2ccc(N(CC)CC)cc2O)cc1 | 0.156
31 | O=C(COc1cccc(C(F)(F)F)c1)NCC(c1ccco1)N1CCCCC1 (centres unmarked) | -36.5
32 | CC(=O)NCCc1nc2ccccc2n1CCOc1cccc(C)c1 | 3.45
33 | Nc1c(-c2ccccc2)c(CSc2nc3ccccc3[nH]2)nn1-c1ccc(Cl)cc1 | 7.01
34 | O=C(O)C1=C[C@H](c2ccc(Br)cc2)C[C@H](OCc2ccc(CO)cc2)O1 | 15.1
35 | CN1C(=O)N(S(=O)(=O)c2ccc(F)c(F)c2F)C(=O)C1(C)C | 10.3
36 | O=C(N/N=C(/CC(=O)c1cccs1)C(F)(F)F)c1ccc(O)cc1 | 9.01
37 | Cl.Oc1ccc(N2CCN(C(c3cccs3)c3nnnn3CCc3ccccc3)CC2)cc1 (centres unmarked) | 5.4
38 | CCOC(=O)[C@H]1[C@H]2COc3ccc(OC)cc3[C@@H]2N2C(=O)CN(CC3CCCO3)C(=O)[C@@]12C (some centres unmarked) | 18.4

Row | Structure (SMILES) | hERG current change (%, negative = inhibition) at 10uM [%]
39 | FC(F)(F)c1cc(-c2ccccc2)nc(NCC2CCCO2)n1 (centres unmarked) | -0.375
40 | O=C(/C=C/c1ccc(OC2CSC2)cc1)c1ccc(Cl)cc1 | 2.42
41 | CCOC(=O)C1=C(O)C(=O)N(Cc2cccnc2)C1c1ccc(C)cc1 (centres unmarked) | 18.9
42 | Cc1ncc(CO)c(/C=N/NC(=O)c2ccc(O)cc2)c1O | -5.98
43 | COc1ccc(CC2(C)OC(c3ccc([N+](=O)[O-])cc3)=NN2C(C)=O)cc1 (centres unmarked) | -45.6
44 | O=C(c1cccs1)C1CN2CCC1CC2 (centres unmarked) | -4.77
45 | O=[N+]([O-])c1cc(NS(=O)(=O)c2ccc(Cl)nc2)ccc1Cl | -19.1
46 | Cc1ccc(NC(=O)Cn2cccc2C2=NC(c3ccccc3)CO2)cc1C (centres unmarked) | 7.13
47 | CCC(C(=O)Nc1ccc([N+](=O)[O-])cn1)c1ccccc1 (centres unmarked) | -67.4
48 | COc1ccc(-n2c(SCC(=O)c3ccc[nH]3)nnc2-c2ccccc2)cc1 | 18.6
49 | O=S(=O)(c1cnc[nH]1)N1CCN(c2ccc(Cl)cc2)CC1 | 6.03
50 | CN(C(=O)CN1C(=O)/C(=C/c2ccc(Cl)cc2)SC1=S)C1CCS(=O)(=O)C1 (centres unmarked) | -0.855
51 | CCCN1C(=O)C2(SC(NC(C)=O)=NN2C(C)=O)c2cc(C)ccc21 (centres unmarked) | 39.1
52 | CCCCCn1c(=O)c(C(=O)Nc2ccccc2)c(O)c2ccccc21 | 17.4
53 | CCOC(=O)CN1NC2(CCCCCCC2)NC1=S | 12
54 | COc1ccc(C(=O)OCC(O)COC(=O)c2ccc(OC)cc2)cc1 | -23.2
55 | CCOC(=O)c1nc2cc3n(c(C)c-2c1C)C(C)C(C)=C3C.Cl (centres unmarked) | -42.8
56 | Cc1ccn2cc(-c3cccc(S(=O)(=O)N4CCCCC4)c3)nc2c1 | -27.6
